This is an account of results in patent US20260191982A1, “ANTI-BASAL CELL ADHESION MOLECULE ANTIBODY-DRUG CONJUGATE” (Genome & Company, Inc., priority 2022, published 2026).

Assay [1] concerns BCAM positive A431 xenograft model. The assay is described as follows: In vivo anti-tumor activity in A431 xenograft model. Further details: species or system BALB/c nude mouse. Conditions: 20 mg/kg i.v. once a week for two weeks, day 14. As for the experimental part:
In vivo anti-tumor activity of Ab1-Linker-AF was evaluated in BCAM positive A431 xenograft model. A431 cells (KCLB, Korea) were cultured in RPMI supplemented with 10% FBS and 1% penicillin/streptomycin at 37° C. and 5% CO2. To establish a tumor model, 5×10^6 A431 cells were subcutaneously injected into the right flank of a 6-week-old female BALB/c nude mouse (Orientbio, Korea). When tumors reached 75~150 mm^3, mice were randomly assigned to the following treatment groups (n=8/group): PBS (vehicle), HG4K IgG4-Linker-AF (20 mg/kg), Ab1 (20 mg/kg), and Ab1-Linker-AF (5, 10, and 20 mg/kg). Each control or test article was given intravenously once a week for two weeks. Tumor diameters were measured 2 to 3 times a week and the tumor volume was calculated with the following formula: [Tumor volume=Length×Width^2×0.5]. […] On day 14 after starting treatment, the mean tumor growth rate of the vehicle control group was set as 100% and compared with other control groups (20 mg/kg of HG4K IgG4-Linker-AF and 20 mg/kg of Ab1) and Ab1-Linker-AF (5, 10, and 20 mg/kg) treatment groups.

The subject of assay [2] is SK-BR-3. The experiment in a line: Cytotoxic activity, CellTiter-Glo assay (Example 3.2). Conditions: 72 hours; Table 4.2. Format: cell-based, human. As for the experimental part: (§1) In vitro cytotoxic activity of Ab1-Linker-MMAF and Ab3-Linker-MMAF was assessed in several human cancer cell lines (KURAMOCHI, OVCAR3, SK-BR-3, VCaP or RERF-GC-1B) expressing different levels of BCAM by CellTiter-Glo® assay (Promega). Cells were seeded into 96 well clear flat bottom plates (5,000 cells/well) in RPMI-1640 (for KURAMOCHI, OVCAR3, and SK-BR-3) or DMEM (for VCaP and RERF-GC-1B) supplemented with 10% FBS and 1% penicillin/streptomycin and kept at 37° C. and 5% CO2. After overnight incubation, cells were treated with different concentrations of Ab1-Linker-MMAF, Ab3-Linker-MMAF or negative controls for each test article (HG4K IgG4-Linker-MMAF for Ab1-Linker-MMAF and Ab3-Linker-MMAF, respectively). After 72 hours, CellTiter-Glo® reagent was added to each well and luminescence was measured using Envision 2105 (PerkinElmer, Waltham, MA). All experiments were performed in triplicate. The percentage of viable cells was determined using the following formula: (T−D0)/(V−D0)×100 [T=luminescence of drug treated cells, V=luminescence of PBS (vehicle) treated cells, D0=luminescence of untreated cells on day 0]. All data were analyzed using GraphPad Prism software (GraphPad Software, San Diego, CA).
For orientation: Cellular ATP, detected with luciferase, serves as a proxy for viable cell number.

A further assay has as its system RERF-GC-1B. Described as above. Format: cell-based, human. Conditions: 72 hours. The procedure: as §1
A further assay has as its system OVCAR3. The assay is described as above. Conditions: 72 hours. Format: cell-based, human. As for the experimental part: as §1
In the next assay the test system is KURAMOCHI
The assay is described as above. It is filed as cell-based, human. Conditions: 72 hours. The procedure:
as §1

A further assay has as its system VCaP. The assay is described as above. It is filed as cell-based, human. Conditions: 72 hours. The procedure:
as §1

In assay [3] the test system is MKN-1 cells endogenously expressing BCAM. The experiment in a line: In vitro cellular internalization by confocal laser scanning microscopy. It is filed as cell-based, human. The procedure: In vitro cellular internalization property by receptor-mediated endocytosis of Ab1 was evaluated to MKN-1 cells endogenously expressing BCAM by immunocytochemical analysis using confocal laser scanning microscopy. MKN-1 (human gastric adenosquamous carcinoma cancer cell line, KCLB) cells were seeded at 5.0×10^4 cells to each well on the chamber slide (SPL, Korea) and incubated overnight at 37° C. and 5% CO2 condition. Next day, the chamber slides were washed with 1 mL of PBS and μL of Ab1 (40 μg/mL) or HG4K IgG4 (SinoBiological, USA) (40 μg/mL) diluted in PBS was added to indicated well. The Ab1 treated chamber slides were divided into two groups, one group was used as a negative control for cellular internalization, and the other group was used for induction of cellular internalization. For negative control group, the Ab1 treated cells in chamber slides were incubated for 1 hr at 4° C., and then unbound antibodies were removed and washed 3 times with 1 mL of PBS. The chamber slide was fixed with 500 μL of 4% PFA (paraformaldehyde; Sigma, USA) solution for 10 min at room temperature. […] After washing 3 times with PBS, Dako fluorescence mounting solution was drop-wisely added to the slides, and the slides were sealed with clear cover glass. […]

Assay [4] concerns SK-BR-3. The assay is described as follows: Cytotoxic activity, CellTiter-Glo assay (Example 3.1). It is filed as cell-based, human. Conditions: 72 hours. The procedure:
(§2) In vitro cytotoxic activity of Ab1-Linker-DM1, Ab1-Linker-AF and Ab2-Linker-AF was assessed in several human cancer cell lines (SK-BR-3, T47D, MCF-7, A431 or Huh7) expressing different levels of BCAM by CellTiter-Glo® assay (Promega). Cells were seeded into 96 well clear flat bottom plates (5,000 cells/well) in RPMI-1640 supplemented with 10% FBS and 1% penicillin/streptomycin and kept at 37° C. and 5% CO 2. After overnight incubation, cells were treated with different concentrations of Ab1-Linker-DM1, Ab1-Linker-AF or negative controls for each test article (HG4K IgG4-Linker-DM1 for Ab1-Linker-DM1 and HG4K IgG4-Linker-AF for Ab1-Linker-AF and Ab2-Linker-AF, respectively). After 72 hours, CellTiter-Glo® reagent was added to each well and luminescence was measured using Synergy H1 (BioTek, Winooski, VT). All experiments were performed in triplicate. The percentage of viable cells was determined using the following formula: (T−D0)/(V−D0)×100 [T=luminescence of drug treated cells, V=luminescence of PBS (vehicle) treated cells, D0=luminescence of untreated cells on day 0]. All data were analyzed using GraphPad Prism software (GraphPad Software, San Diego, CA). […] See FIGS. 1A (for Ab1-Linker-DM1) and 1B (for Ab1-Linker-AF). […] Next, the cytotoxicity of Ab2-Linker-AF was examined in SK-BR3 and A431 cells.

The test system of another assay is Huh7. Described as above. Format: cell-based, human. Conditions: 72 hours. As for the experimental part:
as §2

In the next assay the test system is A431. Described as above. It is filed as cell-based, human. Conditions: 72 hours. As for the experimental part:
as §2

A further assay concerns MCF-7. The description is as above. It is filed as cell-based, human. Conditions: 72 hours. As for the experimental part:
as §2

In another assay the test system is T47D. Described as above. Format: cell-based, human. Conditions: 72 hours. The procedure:
as §2

[5] abbreviates: Table 4.1 Ab1-Linker-DM1 / Ab1-Linker-AF sections.
[6] abbreviates: Table 4.1 Ab2-Linker-AF section.

B1: Ab1: anti-BCAM antibody, human IgG4 S228P isotype; heavy chain SEQ ID NO: 9, light chain SEQ ID NO: 11 (antibody)
heavy: EVQLVQSGGGLVKPGGSLRLSCAASGFTFSDYYMSWIRQAPGKGLEWVSYTSSSGSTIYYADSVKGRFTISRDNAKNSLYLQMNSLRAEDTAVYYCARDITAFDIWGQGTMVTVSSASTKGPSVFPLAPCSRSTSESTAALGCLVKDYFPEPVTVSWNSGALTSGVHTFPAVLQSSGLYSLSSVVTVPSSSLGTKTYTCNVDHKPSNTKVDKRV[human IgG4 Fc with S228P (EU numbers) left out here]
light: LPVLTQPPSASGSPGQSVTISCTGTSSDVGGYNYVSWYQQHPGKAPKLMIYEVNKRPSGVPDRFSGSKSGNTASLTVSGLQAEDEADYYCCSYAGSNNYVFGTGTKVTVLGQPKAAPSVTLFPPSSEELQANKATLVCLISDFYPGAVTVAWKADSSPVKAGVETTTPSKQSNNKYAASSYLSLTPEQWKSHRSYSCQVTHEGSTVEKTVAPTECS
In general, GI50 refers to the concentration giving 50% growth inhibition. Turning to B1, the “mean tumor growth rate (vehicle control = 100%)” value in assay [1] is 83.4%. Further, the GI50 in the assay on SK-BR-3 [2], with RERF-GC-1B, in the assay with OVCAR3, with KURAMOCHI and with VCaP was greater than 1000 nM throughout. Moreover, the “Localisation of antibody in MKN-1 cells” value in [3] (internalization induction group: 40 μg/mL, 1 hr at 4° C. then 1 hr at 37° C.) was “detected in the intracellular region of MKN-1”; in assay [3] (negative control group: 40 μg/mL, 1 hr at 4° C. without cellular internalization induction), “detected on the cell surface of MKN-1”.

B2: Ab1-Linker-DM1 (conjugate)
heavy: B1 heavy
light: B1 light
modifications: non-natural residues
Turning to B2, the GI50 in the assay on SK-BR-3 [4] (setting [5]) was 2.8 nM; with Huh7, 22 nM; in the assay on A431 (setting [5]) it was 42 nM; in the assay on MCF-7 it was 34 nM; in the assay on T47D, 16 nM.

B3: Ab1-Linker-MMAF (conjugate)
heavy: B1 heavy
light: B1 light
modifications: non-natural residues
As for B3, the GI50 is 0.31 nM with SK-BR-3 [2]; 1.5 nM with RERF-GC-1B; 5.1 nM with OVCAR3; 5.3 nM in the assay with KURAMOCHI; 14 nM in the assay with VCaP.

B4: Ab3: anti-BCAM antibody, human IgG1 LALA isotype; heavy chain SEQ ID NO: 12, light chain SEQ ID NO: 11 (antibody)
heavy: EVQLVQSGGGLVKPGGSLRLSCAASGFTFSDYYMSWIRQAPGKGLEWVSYTSSSGSTIYYADSVKGRFTISRDNAKNSLYLQMNSLRAEDTAVYYCARDITAFDIWGQGTMVTVSSASTKGPSVFPLAPSSKSTSGGTAALGCLVNDYFPEPVTVSWNSGALTSGVHTFPAVLQSSGLYSLSSVVTVPSSSLGTQTYICNVNHKPSNTKVDKKV[human IgG1 Fc with changes left out here]
light: B1 light
B4: the 50% growth inhibitory concentration (GI50) in the assay on SK-BR-3 [2], in the assay with RERF-GC-1B, with OVCAR3, in the assay on KURAMOCHI and in the assay with VCaP was greater than 1000 nM throughout.

B5: Ab2: anti-BCAM antibody, human IgG1 isotype; heavy chain SEQ ID NO: 10, light chain SEQ ID NO: 11 (antibody)
heavy: EVQLVQSGGGLVKPGGSLRLSCAASGFTFSDYYMSWIRQAPGKGLEWVSYTSSSGSTIYYADSVKGRFTISRDNAKNSLYLQMNSLRAEDTAVYYCARDITAFDIWGQGTMVTVSSASTKGPSVFPLAPSSKSTSGGTAALGCLVNDYFPEPVTVSWNSGALTSGVHTFPAVLQSSGLYSLSSVVTVPSSSLGTQTYICNVNHKPSNTKVDKKV[human IgG1 Fc left out here]
light: B1 light
In the case of B5, the concentration for 50% growth inhibition (GI50) with SK-BR-3 [4] (setting [6]) and with A431 (setting [6]) was greater than 1000 nM each time.

B6: Ab3-Linker-MMAF (conjugate)
heavy: EVQLVQSGGGLVKPGGSLRLSCAASGFTFSDYYMSWIRQAPGKGLEWVSYTSSSGSTIYYADSVKGRFTISRDNAKNSLYLQMNSLRAEDTAVYYCARDITAFDIWGQGTMVTVSSASTKGPSVFPLAPSSKSTSGGTAALGCLVNDYFPEPVTVSWNSGALTSGVHTFPAVLQSSGLYSLSSVVTVPSSSLGTQTYICNVNHKPSNTKVDKKV[human IgG1 Fc with changes left out here]
light: B1 light
modifications: non-natural residues
For B6, the GI50 worked out at 0.24 nM in the assay on SK-BR-3 [2]; 1.4 nM with RERF-GC-1B; 3.1 nM with OVCAR3; 4.4 nM in the assay with KURAMOCHI; 24 nM with VCaP.
